# Experimental data taken from the RNAGym collection of RNA variant scans (doi:10.1073/pnas.2313332121).
# Variants at the background level are over-represented here.
# B1: TPR 5TU (parent)
# chain: GGAUCUUCUCGAUCUAACAAAAAAGACAAAUCUGCCACAAAGCUUGAGAGCAUCUUCGGAUGCAGAGGCGGCAGCCUUCGGUGGCGCGAUAGCGCCAACGUUCUCAACUAUGACACGCAAAACGCGUGCUCCGUUGAAUGGAGUUUAUCAUG
# Variants of: B1
# Assay: polymerase ribozyme fitness, log enrichment relative to wild type (log ratio); higher = more active; in vitro selection for triplet polymerase activity
# Procedure, shortened: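 Mutant libraries of each subunit of a heterodimeric triplet polymerase ribozyme were built by PCR and transcribed. Each library went through one round of in vitro selection in triplicate: annealing with biotinylated primer, partner subunit and triplets, frozen incubation at −7 °C, gel excision of extended constructs, streptavidin-bead capture and RT-PCR. Input and output libraries were Illumina-sequenced; only genotypes with ≥10 input reads and ≥1 read per output were kept. Fitness is log2(genotype enrichment/wild-type enrichment), using inverse-variance-weighted replicate averages.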
row,Variant,polymerase ribozyme fitness (log ratio)
1,G126A C132U A142C,≤ -4.2
2,G126C,1.28
3,G126U,0.31
4,G126U C132U,-0.717
5,U127A A150C,≤ -4.2
6,U127C C131A G152U,-3.91
7,U127G A137U,-4.19
8,U127G G136A,-2.89
9,G128U U130C A138G,≤ -4.2
10,G128U U144C,-3.96
11,C129G U134G,-3.81
12,C132U G152U,-2.75
13,C132U U135A,-2.46
14,G133A U134G,-2.81
15,G133C U134A,≤ -4.2
16,G133U G136C,≤ -4.2
17,U134A A142C,-2.66
18,U134A G141U,-2.41

row,Variant,polymerase ribozyme fitness (log ratio)
1,U134A U148G,≤ -4.2
2,U135A G140C G143A,≤ -4.2
3,U135A G143A A147G,≤ -4.2
4,G136U U144G,-3.29
5,A137G U144A,-3.01
6,A138C,-3.67
7,A138G,-1.9
8,A138U,-3.87
9,U139A U144A,-4.15
10,U139C U144A,-3.36
11,G141A,0.689
12,G141C,-0.0848
13,G141U,1.61
14,A142G A147U,-0.49
15,A142G U146C,-3.25
16,G143A U151G,≤ -4.2
17,U145G U151G,-4.07
